Here are results for 31 sequences from article PMC12820563.

The other results are listed elsewhere or left out. The list includes weakly bound sequences.

The target in the test is T1, MBP-FoxP3dN (UniProt Q99JB6).
T1 sequence: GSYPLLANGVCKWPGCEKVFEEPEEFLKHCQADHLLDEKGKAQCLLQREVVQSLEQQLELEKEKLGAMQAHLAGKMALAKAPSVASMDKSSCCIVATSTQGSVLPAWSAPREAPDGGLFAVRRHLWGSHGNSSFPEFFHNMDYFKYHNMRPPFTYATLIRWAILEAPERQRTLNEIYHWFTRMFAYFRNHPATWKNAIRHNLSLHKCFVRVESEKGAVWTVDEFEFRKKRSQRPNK
Description: PD-seq (MBP pull-down with sequencing). Particulars: 20 mM Tris-HCl pH 7.5, 100 mM NaCl, 1.5 mM MgCl2, 0.4 uM protein, 0.1 uM dsDNA library, 30 min, room temperature, amylose pull-down; high values mean tight binding; double strand, one strand shown.
“GATGATTGTTCTCCCAGCTGATGAATTATGAATTTCGAGTAAACAAATTTTCCTAATCTTTCTGTTCAAGCGCCATCTAC”: the binding signal (RPM ratio (pull-down/input)) stood at 1.57.

Regarding “GATGATTGTTCTCCCAGCTGATGAATTGAAAAGCTCGAGTAAACAAATTTTCCTAATCTTTCTGTTCAAGCGCCATCTAC”, the binding signal (RPM ratio (pull-down/input)) was 0.192.

Take “GATGATTGTTCTCCCAGCTGATGAATTTCGACACTCGAGTAAACAAATTTTCCTAATCTTTCTGTTCAAGCGCCATCTAC”: the binding signal (RPM ratio (pull-down/input)) stood at 1.96.

Turning to “GATGATTGTTCTCCCAGCTGATGAATTGTTGTTGTCGAGTAAACAAATTTTCCTAATCTTTCTGTTCAAGCGCCATCTAC”, the binding signal (RPM ratio (pull-down/input)) turned out to be 7.65.

In the case of “GATGATTGTTCTCCCAGCTGATGAATTTCCTTTTTCGAGTAAACAAATTTTCCTAATCTTTCTGTTCAAGCGCCATCTAC”, the binding signal (RPM ratio (pull-down/input)) turned out to be 0.286.

With “GATGATTGTTCTCCCAGCTGATGAATTGTATTCGTCGAGTAAACAAATTTTCCTAATCTTTCTGTTCAAGCGCCATCTAC”, the binding signal (RPM ratio (pull-down/input)) was 1.73.

In the case of “GATGATTGTTCTCCCAGCTGATGAATTGTCGTTCTCGAGTAAACAAATTTTCCTAATCTTTCTGTTCAAGCGCCATCTAC”, the binding signal (RPM ratio (pull-down/input)) came out at 0.975.

On to “GATGATTGTTCTCCCAGCTGATGAATTAATAATGTCGAGTAAACAAATTTTCCTAATCTTTCTGTTCAAGCGCCATCTAC”, for which the binding signal (RPM ratio (pull-down/input)) stood at 0.447.

Regarding “GATGATTGTTCTCCCAGCTGATGAATTCCCTCCTTCGAGTAAACAAATTTTCCTAATCTTTCTGTTCAAGCGCCATCTAC”, the binding signal (RPM ratio (pull-down/input)) was 0.232.

For the sequence “GATGATTGTTCTCCCAGCTGATGAATTGAACGATTCGAGTAAACAAATTTTCCTAATCTTTCTGTTCAAGCGCCATCTAC”, the binding signal (RPM ratio (pull-down/input)) came out at 0.312.

Regarding “GATGATTGTTCTCCCAGCTGATGAATTTTCTTTCTCGAGTAAACAAATTTTCCTAATCTTTCTGTTCAAGCGCCATCTAC”, the binding signal (RPM ratio (pull-down/input)) was 0.34.

Regarding “GATGATTGTTCTCCCAGCTGATGAATTGTCGCGGTCGAGTAAACAAATTTTCCTAATCTTTCTGTTCAAGCGCCATCTAC”, the binding signal (RPM ratio (pull-down/input)) amounted to 0.456.

Regarding “GATGATTGTTCTCCCAGCTGATGAATTACCAAGTTCGAGTAAACAAATTTTCCTAATCTTTCTGTTCAAGCGCCATCTAC”, the binding signal (RPM ratio (pull-down/input)) came to 0.267.

As to “GATGATTGTTCTCCCAGCTGATGAATTGACACTGTCGAGTAAACAAATTTTCCTAATCTTTCTGTTCAAGCGCCATCTAC”, the binding signal (RPM ratio (pull-down/input)) is 0.464.

Regarding “GATGATTGTTCTCCCAGCTGATGAATTTACCGAATCGAGTAAACAAATTTTCCTAATCTTTCTGTTCAAGCGCCATCTAC”, the binding signal (RPM ratio (pull-down/input)) amounted to 0.376.

With “GATGATTGTTCTCCCAGCTGATGAATTTACTTCTTCGAGTAAACAAATTTTCCTAATCTTTCTGTTCAAGCGCCATCTAC”, the binding signal (RPM ratio (pull-down/input)) stood at 0.632.

“GATGATTGTTCTCCCAGCTGATGAATTGCATTTGTCGAGTAAACAAATTTTCCTAATCTTTCTGTTCAAGCGCCATCTAC”: the binding signal (RPM ratio (pull-down/input)) stood at 3.18.

As to “GATGATTGTTCTCCCAGCTGATGAATTTGCGCGCTCGAGTAAACAAATTTTCCTAATCTTTCTGTTCAAGCGCCATCTAC”, the binding signal (RPM ratio (pull-down/input)) was determined as 0.879.

“GATGATTGTTCTCCCAGCTGATGAATTACGGTCATCGAGTAAACAAATTTTCCTAATCTTTCTGTTCAAGCGCCATCTAC”: the binding signal (RPM ratio (pull-down/input)) was determined as 0.667.

As for “GATGATTGTTCTCCCAGCTGATGAATTGCACAATTCGAGTAAACAAATTTTCCTAATCTTTCTGTTCAAGCGCCATCTAC”, the binding signal (RPM ratio (pull-down/input)) is 1.04.

As for “GATGATTGTTCTCCCAGCTGATGAATTCAAGACGTCGAGTAAACAAATTTTCCTAATCTTTCTGTTCAAGCGCCATCTAC”, the binding signal (RPM ratio (pull-down/input)) came to 0.243.

Regarding “GATGATTGTTCTCCCAGCTGATGAATTAGTATGATCGAGTAAACAAATTTTCCTAATCTTTCTGTTCAAGCGCCATCTAC”, the binding signal (RPM ratio (pull-down/input)) stood at 1.04.

For “GATGATTGTTCTCCCAGCTGATGAATTTTCCAAGTCGAGTAAACAAATTTTCCTAATCTTTCTGTTCAAGCGCCATCTAC”, the binding signal (RPM ratio (pull-down/input)) came out at 0.151.

With “GATGATTGTTCTCCCAGCTGATGAATTTCACTGCTCGAGTAAACAAATTTTCCTAATCTTTCTGTTCAAGCGCCATCTAC”, the binding signal (RPM ratio (pull-down/input)) was 0.327.

As for “GATGATTGTTCTCCCAGCTGATGAATTGCTGTTGTCGAGTAAACAAATTTTCCTAATCTTTCTGTTCAAGCGCCATCTAC”, the binding signal (RPM ratio (pull-down/input)) was determined as 2.74.

Turning to “GATGATTGTTCTCCCAGCTGATGAATTACCAAGATCGAGTAAACAAATTTTCCTAATCTTTCTGTTCAAGCGCCATCTAC”, the binding signal (RPM ratio (pull-down/input)) turned out to be 0.227.

For “GATGATTGTTCTCCCAGCTGATGAATTCTACACCTCGAGTAAACAAATTTTCCTAATCTTTCTGTTCAAGCGCCATCTAC”, the binding signal (RPM ratio (pull-down/input)) was 0.327.

Turning to “GATGATTGTTCTCCCAGCTGATGAATTGTGGTATTCGAGTAAACAAATTTTCCTAATCTTTCTGTTCAAGCGCCATCTAC”, the binding signal (RPM ratio (pull-down/input)) was determined as 2.19.

For the sequence “GATGATTGTTCTCCCAGCTGATGAATTGACAGGCTCGAGTAAACAAATTTTCCTAATCTTTCTGTTCAAGCGCCATCTAC”, the binding signal (RPM ratio (pull-down/input)) is 0.356.

For “GATGATTGTTCTCCCAGCTGATGAATTACTTGCCTCGAGTAAACAAATTTTCCTAATCTTTCTGTTCAAGCGCCATCTAC”, the binding signal (RPM ratio (pull-down/input)) came out at 0.506.

In the case of “GATGATTGTTCTCCCAGCTGATGAATTGTGCTATTCGAGTAAACAAATTTTCCTAATCTTTCTGTTCAAGCGCCATCTAC”, the binding signal (RPM ratio (pull-down/input)) is 4.38.
